Where “and” joins values, the source holds several entries; their conditions need not be identical. Equal entries are not always repeated. Where two headings read alike, the source gives them in different places.
System: L. donovani (MHOM/ET/67/L82) axenic amastigotes
Test: Activity against Leishmania donovani axenic amastigotes (resazurin)
Conditions: for IC50: mean of at least two independent replicates ± absolute deviation; for L. donovani SI (selectivity index): IC50 in L6 cells divided by IC50 in L. donovani
[1] = Leishmania donovani, read-out: L. donovani IC50, axenic amastigotes MHOM-ET-67/L82

SMILES | IC50 [1] | L. donovani SI (selectivity index) | IC50 (read-out: L. donovani IC50, axenic amastigotes MHOM-ET-67/L82)
CCCCCCCCCCCCCCCCOP(=O)([O-])OCC[N+](C)(C)C [miltefosine, reference compound] | 0.5 µM | – | –
COc1cc(/C=C/C(=O)NCCc2ccc(O)cc2)ccc1O [Compound 6, (E)-N-feruloyltyramine] | 99.4 ± 9.3 µM | 2.5 | –
COc1cc(/C=C/C(=O)NCCCCNC(=O)/C=C/c2ccc(O)c(OC)c2)ccc1O [Compound 8, N,N′-diferuloylputrescine] | 97 ± 0.9 µM | 1.5 | –
COc1cc(CC(C)C(CO)Cc2ccc(O)c(OC)c2)ccc1O (stereo not shown) [Compound 10, 3,3′-dimethoxy-4,4′-dihydroxylignan-9-ol] | 55.3 ± 3 µM | 2.3 | –
COc1cc([C@H]2O[C@@H](c3ccc(O)c(OC)c3)[C@H](C)[C@@H]2C)ccc1O [Compound 2, nectandrin B] | 5 µM | 26 and 25.5 | 4.5 ± 1 µM
COc1cc([C@H]2O[C@@H](c3ccc(O)c(OC)c3)[C@@H](C)[C@H]2C)ccc1O [Compound 1, tetrahydrofuroguaiacin B] | 22.6 ± 6.5 µM | 4.2 | –
COc1cc(C(=O)/C(C)=C(/C)C(=O)c2ccc(O)c(OC)c2)ccc1O [Compound 7, furoguaiaoxidin] | 136 ± 1.5 µM | – | –
COc1cc(CCC(=O)NCCc2ccc(O)cc2)ccc1O [Compound 5, dihydro-feruloyltyramine] | 141 ± 1.9 µM | – | –
CCOC(CNC(=O)/C=C/c1ccc(O)c(OC)c1)c1ccc(O)cc1 (stereo not shown) [Compound 9, 7′-ethoxy-feruloyltyramine] | 69.6 ± 4.6 µM | 3.0 | –

— paper PMC7355546, “Lignans, Amides, and Saponins from Haplophyllum tuberculatum and Their Antiprotozoal Activity” (Molecules, 2020)
